In publication PMC4336329 (PLoS ONE, 2015):
The whole screen tested about 310,000 compounds, of which about 2,200 (0.71%) showed an effect of 50% or more. The effect is printed as a negative number. The list shows a part of the results.

target: human ether-à-go-go-related gene (hERG) potassium channel (human, UniProt Q12809); assay: primary screen, population patch clamp on CHO cells stably expressing hERG
Sequence (Q12809 whole entry, looked up): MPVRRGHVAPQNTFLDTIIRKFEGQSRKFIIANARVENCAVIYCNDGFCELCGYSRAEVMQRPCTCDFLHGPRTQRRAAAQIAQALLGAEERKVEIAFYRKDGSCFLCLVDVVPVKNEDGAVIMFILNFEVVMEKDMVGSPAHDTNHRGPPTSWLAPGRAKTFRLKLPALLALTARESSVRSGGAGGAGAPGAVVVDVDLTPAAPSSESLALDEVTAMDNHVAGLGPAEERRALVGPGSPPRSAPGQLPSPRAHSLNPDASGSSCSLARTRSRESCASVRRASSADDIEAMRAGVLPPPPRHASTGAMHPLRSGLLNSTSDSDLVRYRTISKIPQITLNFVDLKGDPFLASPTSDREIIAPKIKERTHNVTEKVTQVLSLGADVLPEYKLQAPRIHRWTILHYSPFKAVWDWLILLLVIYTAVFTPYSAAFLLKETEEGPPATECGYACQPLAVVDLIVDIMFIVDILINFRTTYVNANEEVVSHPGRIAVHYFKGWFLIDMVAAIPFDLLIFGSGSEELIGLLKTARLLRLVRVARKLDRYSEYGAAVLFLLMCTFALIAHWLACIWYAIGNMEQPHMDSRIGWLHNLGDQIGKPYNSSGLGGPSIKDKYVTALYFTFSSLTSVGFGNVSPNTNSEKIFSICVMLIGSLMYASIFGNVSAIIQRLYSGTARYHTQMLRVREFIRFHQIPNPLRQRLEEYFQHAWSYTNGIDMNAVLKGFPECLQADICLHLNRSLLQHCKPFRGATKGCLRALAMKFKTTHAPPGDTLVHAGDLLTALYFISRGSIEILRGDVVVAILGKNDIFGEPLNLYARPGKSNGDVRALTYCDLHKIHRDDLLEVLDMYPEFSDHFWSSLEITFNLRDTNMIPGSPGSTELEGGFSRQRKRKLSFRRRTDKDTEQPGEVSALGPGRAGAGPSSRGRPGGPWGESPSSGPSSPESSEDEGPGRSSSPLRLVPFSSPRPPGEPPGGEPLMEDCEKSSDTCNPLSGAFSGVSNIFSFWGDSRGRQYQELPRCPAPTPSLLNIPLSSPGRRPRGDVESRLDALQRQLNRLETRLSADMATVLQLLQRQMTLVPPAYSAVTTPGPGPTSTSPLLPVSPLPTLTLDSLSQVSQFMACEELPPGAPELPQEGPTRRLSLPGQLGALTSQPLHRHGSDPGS

Structure (SMILES)	hERG current change (%, negative = inhibition) at 1uM [%]
CCc1ccc(C2NC(=O)c3ccccc3O2)cc1 (centres unmarked)	2.73
CC12CCC(C(=O)N(NC(=O)c3ccccc3Cl)C1=O)C2(C)C (centres unmarked)	13.7
Cc1sc2nc(SCC(=O)N(C)c3ccccc3)n(C)c(=O)c2c1C	9.78
CCN(CCO)Cc1cn[nH]c1-c1ccc(C)c(C)c1	12.3
C1CCc2c(nc3nnnn3c2NC2CCCC2)C1	7.83
Cc1ccc(NC(=O)CNC(=O)c2cccs2)c(O)c1	8.28
Cc1ccc(S(=O)(=O)NC(CN2CCOCC2)=NCCNS(=O)(=O)c2ccccc2)cc1	3.7
Fc1ccc(-c2nc3ccccc3c3nc4ccccc4n23)cc1	7.31
CC(=O)Nc1cccc(-c2nc3ccccc3s2)c1C	5.61
CCC(=O)N1N=C(c2cccs2)CC1c1ccc(OC)cc1 (centres unmarked)	19.2
Cc1ccccc1C(=O)N1CCC(C(=O)N(C)CC(=O)Nc2cccc(F)c2)CC1	8.14
CCN(CC)P(=O)(c1n(CC)cc[n+]1CC)N(CC)CC.[I-]	-4.93
NC(=O)COC(=O)c1cccc(S(=O)(=O)N2CCCCC2)c1	1.02
O=C(NCCCN1CCOCC1)c1ccccc1NS(=O)(=O)c1ccc(F)cc1	3.45
CN1C=CC=C/C1=C(\C#N)c1nc2ccccc2[nH]1	4.01
O=C(NNS(=O)(=O)c1cccc(Cl)c1Cl)c1cccc(S(=O)(=O)N2CCOCC2)c1	7.43
COc1cccc(C2C3=C(CC(C)(C)CC3=O)OC(N)=C2[N+](=O)[O-])c1 (centres unmarked)	7.19
COc1ccc(CNC(=O)[C@H](C)[C@@H]2C[C@@]2(C)[C@@H](NC(=O)OCc2ccccc2)c2ccccc2)cc1OC	8.8
OC1COC(OCc2ccccc2)C(O)C1O (centres unmarked)	14.7
N=C(N)n1c(N)nc2ccccc2c1=O	16.2
c1ccc(N2CCN(c3nc4cc5c(cc4s3)OCO5)CC2)cc1	6.09
Cc1ccc(-n2c(SCC(N)=O)nnc2-c2ccccn2)cc1	6.32
COc1ccc(N)cc1-n1c(C)ccc1C	-2.58

Structure (SMILES)	hERG current change (%, negative = inhibition) at 1uM [%]
COc1ccc(S(=O)(=O)NC(C)CCc2ccccc2)cc1 (centres unmarked)	8.58
COC(=O)c1c(C)[nH]c(C(=O)/C=C/c2ccccc2F)c1C	6.87
CCn1nc(C)cc1Nc1ccccc1	-9.86
CN1CCN(C(=O)c2ccc(CS(=O)Cc3ccc(Cl)cc3)o2)CC1 (centres unmarked)	13.9
CCOc1ccc(CN2CCN(Cc3c[nH]c4ccccc34)CC2)cc1.O=C(O)C(=O)O	-85.8
CCSC1=NCCN1S(=O)(=O)c1ccccc1	8.02
CNC(=O)C(=O)Nc1cc2c3c(c1)C(C)C(=O)N3CCC2 (centres unmarked)	14.2
CN(CC(=O)Nc1ccc(F)cc1)C(=O)CCc1ccccc1	14.1
CCC(C)C(=O)Nc1nc(C)c(-c2csc(Nc3cc(OC)ccc3OC)n2)s1 (centres unmarked)	11.1
O=C(O)C1CC(=O)N(c2ccc(OCc3ccc(Cl)cc3Cl)cc2)C1 (centres unmarked)	-4.61
CN1CCN(C(=O)c2ccc(Oc3ccc([N+](=O)[O-])cc3)cc2)CC1	-11.7
Cc1ccc(S(=O)(=O)N/N=C/c2ccc(O)c(O)c2)cc1[N+](=O)[O-]	6.5
Cc1ccc[n+](/C(C(=S)NCc2ccco2)=C(/[O-])c2ccccc2Cl)c1	-22.6
CN1CCC(O)(c2ccc(Cl)cc2)C(C(=O)c2ccc(Cl)cc2)C1 (centres unmarked)	-19.3
O=C(COC(=O)c1cccnc1)c1ccc(Cl)cc1	9.62
Cc1onc(-c2ccccc2)c1C(=O)N/N=C/c1cc(Br)c(Br)o1	16
CS(=O)(=O)N1CCC(C(=O)Nc2cccc(Br)c2)CC1	6.81
CN1CCN(C(=O)CN(C2CCCCC2)S(=O)(=O)c2ccc(Br)cc2)CC1	13.8
COc1cc(CO)ccc1OCC(=O)N1CCc2ccccc21	10.7
O=C(O)Cn1cc(/C=C2\C(=O)NC(=O)N(c3ccc(F)cc3)C2=O)c2ccccc21	10.1
Cc1ccc2nc(Cl)c(C3CC(c4cccs4)=NN3S(C)(=O)=O)cc2c1 (centres unmarked)	8.28
COc1ccc(Cl)cc1C(=O)NCCN(C)C	11.5
COc1cc2cc(CN(CCCN3CCOCC3)C(=O)Nc3ccc(F)cc3)c(=O)[nH]c2cc1OC	6.72

Structure (SMILES)	hERG current change (%, negative = inhibition) at 1uM [%]
COC(=O)Nc1cc(C(=O)c2ccc(Cl)cc2Cl)c[nH]1	7.21
CCOC(=O)C1=C(C)NC(C)=C(C(=O)OCC)C1c1ccc(OC)cc1	10
CC(C)(C)C(=O)Nc1ccc(C(=O)CSc2nnc(C3CC3)n2C2CC2)cc1	8.79
CCOC(=O)C1CCCN(Cc2sccc2C)C1 (centres unmarked)	-4
O=C(CNS(=O)(=O)c1ccccc1)OCC(=O)c1ccc(F)cc1	15.5
Cl.O=C(c1cc2c(s1)CCCC2)N1CCN(Cc2ccc3c(c2)OCO3)CC1	9.38
Cc1cc(C)c(NC(=O)C2CC(=O)N(c3ccc4c(c3)OCCO4)C2)c(C)c1 (centres unmarked)	7.68
Cc1cccc(Nc2nc(N)nc(CC(=O)CSc3ccc(Cl)cc3)n2)c1	10
O=C(NCc1cccc(F)c1)C1CCC(=O)N(CCc2cccc(F)c2)C1 (centres unmarked)	4.23
CCOCCCNC(=S)NCCc1ccccc1	19.8
Cc1ncc(CO)c(/C=N/NC(=S)Nc2ccc(Cl)c(Cl)c2)c1O	9.36
Cc1ccc(C)c(S(=O)(=O)N2CCN(C(=O)C(C)Sc3ccccc3)CC2)c1 (centres unmarked)	9.62
O=c1cc(-c2ccco2)nc(SCc2cccc(Cl)c2)[nH]1	14.5
O=C(CN1C(=O)CC(c2ccco2)Sc2ccccc21)Nc1ccc2c(c1)OCCO2 (centres unmarked)	2.94
COc1ccc(S(=O)(=O)NCCSCc2cccc(C)c2)cc1Br	7.76
Fc1ccc(CSc2ccc3nnc(-c4cccnc4)n3n2)cc1	-31.8
Cc1ccc(C)c(S(=O)(=O)N2CCN(C(=O)[C@@H]3CCCN3C(=O)c3cccs3)CC2)c1	8.19
CCCc1nc(SCC(=O)N2c3ccccc3CC2C)c2c(C)c(C)sc2n1 (centres unmarked)	13.5
O=C(CSC(=S)N1CCOCC1)Nc1ncc2c(n1)CC(c1ccco1)CC2=O (centres unmarked)	12
CCOC(=O)c1ccc(Oc2coc3cc(O)ccc3c2=O)cc1	18.1
COc1ccc(-c2nnc(N(C)C(=O)c3cccnc3)s2)cc1	8.01
N#Cc1c2n(c(=S)n(-c3ccc(F)cc3)c1=O)CCCCC2	15.7
COc1cc2c(cc1OC)C(C)N(C(=O)c1cc3ccccc3o1)CC2 (centres unmarked)	4.61

Structure (SMILES)	hERG current change (%, negative = inhibition) at 1uM [%]
O=C(NC1CC1)C1CCN(c2ncccn2)CC1	10.3
CN(CC(=O)NNC(=O)Cc1ccccc1F)S(=O)(=O)c1ccc(Cl)cc1	8.43
Cc1ccc(NC2CCCN(C(=O)c3cn4cc(Cl)ccc4n3)C2)cc1C (centres unmarked)	12
O=c1[nH]n(-c2ccccc2Cl)c(=O)c2ccccc12	15.2
COc1ccc(-c2nnc(COc3ccc4ccccc4c3)o2)cc1OC	15.3
CCC1(c2ccccc2)NC(=O)N(CC(=O)N(C)CC(=O)Nc2c(C)cccc2C)C1=O (centres unmarked)	10.3
CC(C)NC(=O)NC(=O)COC(=O)c1ccc([N+](=O)[O-])cc1Cl	-7.21
CCOC(=O)c1c(NC(=O)CN2C(=O)CN(C)C2=O)sc(C)c1C	11
CC(=O)c1ccc(N2CCN(C(=O)CCCn3c(=O)[nH]c4ccccc4c3=O)CC2)cc1	7.45
CC(=O)C1=C(O)C(=O)N(CCC(=O)O)C1c1ccccc1Cl (centres unmarked)	7.48
COc1cc(/C=N/NC(=O)C(=O)NCC2CCCO2)cc(Cl)c1O (centres unmarked)	22.2
O=C(NC1CC1)C1=C[C@@H](c2ccccc2)C[C@@H](OCCCCO)O1	14.9
COc1ccc(NS(=O)(=O)c2c(C(=O)N3CCCCCC3)c(C)n(C)c2C)cc1OC	13
O=C(Nc1cc(C(F)(F)F)ccc1-n1cncn1)c1ccc(Br)cc1	0.412
COc1ccc(C2C(C#N)=C(C)NC3=C2C(=O)CC(C)(C)C3)c(OC)c1 (centres unmarked)	-3.94
CCOc1ccc(N2CC(C(=O)Nc3ccc(S(=O)(=O)Nc4nccs4)cc3)CC2=O)cc1 (centres unmarked)	15.7
COC(=O)c1cc(Sc2cccc(Cl)c2Cl)ccn1	-5.02
Cc1ccc(S(=O)(=O)N(CC(=O)N/N=C/c2ccco2)c2cc(Cl)cc(Cl)c2)cc1	-0.0047
CCCc1nc(SCC(=O)NCc2ccco2)c2c(=O)n(C)c(=O)n(C)c2n1	15.1
Cn1nc(-c2ccc3c(c2)OCCO3)c2ccccc2c1=O	10
